Experimental data published in the supplement of paper PMC11876631.
Changes are numbered by the printed parent chain. Names and notes keep the numbering of the source. ± gives the standard deviation of the averaged measurements. Laboratory Escherichia coli strains with one amino-acid change in an essential protein, pooled on minimal glucose agar with carbenicillin or gentamicin at twice the control MIC (plus kanamycin and chloramphenicol for the plasmids), 48 h. Fold change of barcode share against drug-free plates; higher = less susceptible. Active = above 20 in both replicates (the paper's putatively resistant). '<' = one read or none on drug, '>' = one read or none on a drug-free plate. Shares are relative, so most strains fall below 1 when a few take over. Listed are strains with at least 15 reads on both drug-free plates, and hits; most hits rest on fewer reference reads. Replicate rank correlation about 0.5. Edits are read from barcodes.

B1: glyQ L170Q (protein)
chain: MQKFDTRTFQGLILTLQDYWARQGCTIVQPLDMEVGAGTSHPMTCLRELGPEPMAAAYVQPSRRPTDGRYGENPNRLQHYYQFQVVIKPSPDNIQELYLGSLKELGMDPTIHDIRFVEDNWENPTLGAWGLGWEVWLNGMEVTQFTYFQQVGGLECKPVTGEITYGLERQAMYIQGVDSVYDLVWSDGPLGKTTYGDVFHQNEVEQSTYNFEYADVDFLFTCFEQYEKEAQQLLALENPLPLPAYERILKAAHSFNLLDARKAISVTERQRYILRIRTLTKAVAEAYYASREALGFPMCNKDK
B2: glyQ L170P (protein)
chain: B1 chain with Q170P
B3: accA V195Q (protein)
chain: MSLNFLDFEQPIAELEAKIDSLTAVSRQDEKLDINIDEEVHRLREKSVELTRKIFADLGAWQIAQLARHPQRPYTLDYVRLAFDEFDELAGDRAYADDKAIVGGIARLDGRPVMIIGHQKGRETKEKIRRNFGMPAPEGYRKALRLMQMAERFKMPIITFIDTPGAYPGVGAEERGQSEAIARNLREMSRLGVPQVCTVIGEGGSGGALAIGVGDKVNMLQYSTYSVISPEGCASILWKSADKAPLAAEAMGIIAPRLKELKLIDSIIPEPLGGAHRNPEAMAASLKAQLLADLADLDVLSTEDLKNRRYQRLMSYGYA
B4: gmk F100A (protein)
chain: MAQGTLYIVSAPSGAGKSSLIQALLKTQPLYDTQVSVSHTTRQPRPGEVHGEHYFFVNHDEFKEMISRDAFLEHAEVFGNYYGTSREAIEQVLATGVDVALDIDWQGAQQIRQKMPHARSIFILPPSKIELDRRLRGRGQDSEEVIAKRMAQAVAEMSHYAEYDYLIVNDDFDTALTDLKTIIRAERLRMSRQKQRHDALISKLLAD
B5: gmk F100W (protein)
chain: B4 chain with A100W
B6: gmk F100Q (protein)
chain: B4 chain with A100Q
B7: gmk F122W (protein)
chain: B4 chain with A100F, F122W
B8: gmk L24A (protein)
chain: B4 chain with L24A, A100F
B9: gmk L101D (protein)
chain: B4 chain with A100F, L101D
B10: gmk L124D (protein)
chain: B4 chain with A100F, L124D
B11: gmk I123A (protein)
chain: B4 chain with A100F, I123A
B12: gmk L124A (protein)
chain: B4 chain with A100F, L124A
B13: gmk L101Q (protein)
chain: B4 chain with A100F, L101Q
B14: gmk L124W (protein)
chain: B4 chain with A100F, L124W
B15: gmk L101A (protein)
chain: B4 chain with A100F, L101A
B16: gmk F122A (protein)
chain: B4 chain with A100F, F122A
B17: gmk L124Q (protein)
chain: B4 chain with A100F, L124Q
B18: gmk F122Q (protein)
chain: B4 chain with A100F, F122Q

What follows are proteins tested against Escherichia coli (laboratory strain) (assay: barcode share on antibiotic plates over drug-free plates; higher = less susceptible). Settings: antibiotic: carbenicillin; 2× MIC (3.1 µg/mL).
Method: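 A pool of E. coli strains, each edited to carry one amino-acid change in an essential protein, was grown for 48 h on minimal glucose agar with or without antibiotic; strain barcodes were sequenced; mean of two replicates.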

Row | Protein | fold change of barcode share
1 | B1 | 0.476 ± 0.22
2 | B2 | 0.386 ± 0.01
3 | B3 | 0.348 ± 0.18
4 | B4 | 0.219 ± 0.031
5 | B5 | 0.361 ± 0.21
6 | B6 | 0.345 ± 0.19
7 | B7 | 0.194 ± 0.048
8 | B8 | 0.251 ± 0.041
9 | B9 | 0.356 ± 0.044
10 | B10 | 0.413 ± 0.081
11 | B11 | 0.34 ± 0.034
12 | B12 | 0.213 ± 0.11
13 | B13 | 0.276 ± 0.071
14 | B14 | 0.24623 ± 0.00017
15 | B15 | 0.339 ± 0.05
16 | B16 | 0.22 ± 0.022
17 | B17 | 0.17 ± 0.098
18 | B18 | 0.237 ± 0.048

Same assay, conditions: antibiotic: gentamicin; 2× MIC (MIC 0.45 µg/mL)

Row | Protein | fold change of barcode share
19 | B1 | 0.0192 ± 0.023
20 | B2 | < 0.00696
21 | B3 | 0.0116 ± 0.013
22 | B4 | 0.00453 ± 0.003
23 | B5 | 0.00721 ± 0.0056
24 | B6 | < 0.00697
25 | B8 | < 0.0153
26 | B9 | 0.0138 ± 0.0038
27 | B11 | 0.031 ± 0.031
28 | B13 | 0.0116 ± 0.0094
29 | B15 | < 0.00971
30 | B16 | < 0.00736
31 | B18 | < 0.00753
